# Results published in the supplement of paper PMC3334620.
# Over roughly 33,000 sequences, “E-score (-0.5 to 0.5)” has its median near -0.013; the highest 2% begin near 0.3. This is one part of the list.
# Biological target: T1, Msn1 (UniProt P22148)
# T1 sequence: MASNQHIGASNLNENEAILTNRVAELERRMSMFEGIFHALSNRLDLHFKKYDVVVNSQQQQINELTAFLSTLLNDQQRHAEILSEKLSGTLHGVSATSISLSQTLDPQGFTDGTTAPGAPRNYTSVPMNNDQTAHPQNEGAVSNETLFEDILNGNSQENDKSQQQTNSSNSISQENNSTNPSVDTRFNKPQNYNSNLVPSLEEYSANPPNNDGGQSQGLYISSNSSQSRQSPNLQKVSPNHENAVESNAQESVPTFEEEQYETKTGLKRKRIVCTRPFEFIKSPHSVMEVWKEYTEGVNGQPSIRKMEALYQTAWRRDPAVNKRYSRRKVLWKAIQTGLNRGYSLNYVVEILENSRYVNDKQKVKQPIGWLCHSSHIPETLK
# Assay: PBM E-score (8-mer binding enrichment) (E-score (-0.5 to 0.5)); higher = stronger / more preferred TF binding; most listed sequences are background and not binding sites
# Settings: protein concentration: 200 nM; construct: GST-full length
# Method in brief: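 For each ungapped eight-base word taken together with its reverse complement, the Universal PBM Analysis Suite assigned an E-score. Binding data came from GST-tagged yeast transcription factors, applied at about 100-200 nM, on universal all-10-mer Agilent arrays made double-stranded by primer extension. Fluorescent anti-GST marked bound protein, and scans were normalised with masliner.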
row,Sequence,PBM E-score
1,GACTGATC,-0.00353
2,AGCCATCG,-0.0879
3,AAGCCCGC,-0.156
4,ACTCGACC,-0.143
5,ATAGATAA,0.165
6,CACTGTAG,0.0136
7,GGCAAGGA,0.15
8,CAGCACTG,-0.226
9,AAGAGAGC,-0.261
10,CCGGTAAA,0.062
11,CCATAAGC,-0.123
12,AAGTCGCA,0.174
13,ATGGCGCC,-0.215
14,AGACGGCA,0.0024
15,CCGATCCG,0.068
16,TATGTCAA,0.31
17,AATCGCGA,0.12
18,ATACCTCG,0.163
19,CCTATCGC,-0.273
20,AAGCGGGC,-0.207
21,ACGGTGGG,-0.132
22,ATCGTAAC,0.00362
23,CGGTACCG,0.149
24,GGCTTTTA,-0.106
25,CGCGAGGA,-0.162

row,Sequence,PBM E-score
1,AAATAAGC,0.0511
2,ACTTGTAA,0.0138
3,AATATGTC,0.478
4,GCTGGTCC,-0.188
5,TCCAAGCA,-0.0625
6,CACGGTCG,-0.0634
7,CTGTCTAA,0.111
8,TCTAGGCA,-0.00071
9,GATTCCGC,0.0634
10,CGAAAAGC,-0.0729
11,CCCGTGTC,0.14
12,CAGAGGAA,0.0345
13,CCATTCGC,-0.254
14,TGTCGTAA,0.257
15,GCCAACTA,-0.14
16,ATTTAGTC,0.228
17,CACCTCAG,-0.168
18,CAAGGCCA,-0.078
19,CGTGAGGC,-0.12
20,AGGGATCG,-0.273
21,CAGATTGC,-0.0607
22,ACCGCCCT,-0.216
23,GGCGGGAA,-0.214
24,ACGACTAT,0.199
25,CTCATCCC,-0.135

row,Sequence,PBM E-score
1,AAAGTAAG,0.0969
2,CATCGGGC,-0.0678
3,TGGATACA,-0.119
4,CCCGTTGA,-0.0471
5,GGCGGACC,-0.31
6,GCCAGCAA,-0.135
7,CTAAACAC,0.0571
8,ACGACTAA,0.0439
9,CGCCGACG,-0.109
10,ACACCCCC,-0.189
11,GGCGCCAC,-0.195
12,CAGCTTCC,-0.224
13,GTGGGAAC,-0.0258
14,CATCGATA,0.147
15,ATTAAACA,0.184
16,AATATCTA,-0.05
17,GGTGACGA,-0.0575
18,CAGCTCCC,-0.263
19,GAACCTCC,-0.205
20,ATGACATC,0.349
21,CCCTAGGG,-0.216
22,CACCTCAA,-0.0743
23,TTCAGGAA,0.0345
24,CTTGCCAA,-0.0408
25,AAAGACCA,-0.24

row,Sequence,PBM E-score
1,GGAACCTA,-0.0823
2,ACTGAATG,0.037
3,CGCCTACG,-0.146
4,ATGAACGA,0.0422
5,TGACCAAA,0.109
6,AATAATCT,0.0363
7,ATTAGGCG,0.19
8,CCGTAAGG,-0.268
9,GTTAGATA,0.0727
10,CACATGCC,0.0209
11,CTTGGGGA,0.168
12,ACTCGCAT,0.11
13,AGAGGTGG,0.0356
14,AGTAAAGG,-0.0129
15,CACGCGAG,0.197
16,GAGCAGAC,-0.0645
17,TGACAACA,0.212
18,ACTAGGCC,-0.197
19,ATTATTAC,-0.00907
20,CATGAATG,0.0844
21,CCTAGGGC,-0.059
22,ATGTGCAG,-0.0809
23,CCTTCTAA,-0.143
24,ATATCATG,-0.117
25,CGAATACA,-0.00174

row,Sequence,PBM E-score
1,ATGCAGAA,0.0315
2,GCAGTAAA,-0.0255
3,AGCTTAAC,-0.0666
4,AGTTTTCC,-0.00968
5,GCTGGCTA,-0.208
6,AAAACACG,0.0849
7,ATATGTAG,0.135
8,CCAGCGGG,-0.0833
9,GTAACCAC,-0.273
10,TGCGGCAA,-0.134
11,CTTCCTTC,-0.35
12,CATACTTC,-0.117
13,AGAAAGAT,0.136
14,CTATGCTC,-0.156
15,AAACGCTG,-0.0686
16,ATTAGGGA,0.0137
17,ACGGTAGT,0.0315
18,AAGGTGTC,0.09
19,GCCCACAC,-0.213
20,AATAGGGG,-0.0878
21,CGCAGGAG,-0.233
22,AGGGTACA,0.0979
23,ACAGGGTC,-0.163
24,ATCTTGAA,0.102
25,GTTTATGA,0.159

row,Sequence,PBM E-score
1,CGTCTTAA,0.0585
2,CTCTGGCA,-0.149
3,CTTTTACC,0.149
4,TAAGATAA,0.0274
5,CTGTTGTC,0.247
6,AATCAGCC,-0.192
7,TTCTTCAA,0.0945
8,CAGTGAGA,0.0144
9,AACGTTGT,0.121
10,CGAAGACG,-0.0884
11,TCCAAACA,0.0529
12,CGCTTTTC,-0.175
13,GACAAGAC,0.311
14,CGATGTGA,-0.0848
15,ATACCTGG,-0.0908
16,AGCTTCTC,-0.11
17,GTCACGAA,0.126
18,CGGACAAA,0.484
19,GGTGGCGA,-0.24
20,CACATACC,0.0401
21,GAACTTAC,0.0973
22,AGTCGGTC,-0.175
23,CGGTCTTA,-0.0302
24,AATGTTAC,-0.0136
25,CGGAACAA,0.268

row,Sequence,PBM E-score
1,AAAACGGC,0.0785
2,AGCAAAAT,0.174
3,CGTGGGCC,-0.061
4,CTGGACGA,-0.205
5,CCGTGGAA,-0.0597
6,CCTGGCAG,-0.0475
7,CCCTAACC,-0.243
8,ACTGCAAA,0.0756
9,TATGCTGA,0.105
10,TGCGAGAA,-0.167
11,CCTACTAA,0.0386
12,CGAGCCCG,-0.0803
13,ACTTATCG,0.165
14,CCGGTTCC,-0.103
15,ATACCAAG,-0.0141
16,ACCACTCT,-0.118
17,ACGTCGAC,0.118
18,CAACATTA,0.00611
19,AGACTCGG,-0.17
20,ACTCCTAC,-0.224
21,GCATAAGC,0.101
22,CTGCCCAC,-0.138
23,CCCAGAGA,-0.0772
24,AATATACC,0.148
25,ACCATACC,-0.238

row,Sequence,PBM E-score
1,CATGTGTC,0.298
2,AAAAGTTT,0.0561
3,ACGAGGAG,-0.0753
4,AAGTGGGC,-0.0116
5,CGACCTCA,-0.14
6,CCCTACGA,-0.12
7,ATGAACCA,0.0621
8,ATCAGCAT,0.178
9,CAGAGTAG,-0.129
10,ATGACATG,0.361
11,ACAGGCGG,-0.0513
12,AGGTACGG,-0.142
13,CGCTGATA,-0.0744
14,ACGGCTGG,-0.3
15,GCTTGGCA,-0.022
16,TAAATATA,0.207
17,ACTGGCCT,-0.11
18,GACAGTCC,-0.0448
19,ACGACAAG,0.0652
20,AAAGTGAC,-0.0883
21,CCTAGTCA,-0.114
22,CTTCGAGA,0.0311
23,GTCAAAAA,0.128
24,GTCAGCTA,-0.194
25,GTATGGCA,0.00486

row,Sequence,PBM E-score
1,CAGTATCA,0.00611
2,ATGCCACG,-0.243
3,CACACAAA,0.115
4,GTGCGCGA,-0.106
5,CAGTTCAC,-0.0495
6,AGAGGCAC,-0.207
7,ATATTGTG,-0.00984
8,ATTAACAG,0.0865
9,TTAGAAAA,0.109
10,ACTTTTCG,0.256
11,CTGAGCTA,-0.193
12,TAACTGAA,-0.0416
13,GCAGTGCA,-0.19
14,ACCACGGA,-0.192
15,CACTTGTA,0.157
16,CCGGACCA,0.0137
17,ACAAGCCC,-0.149
18,ACTTGCGA,0.177
19,AAGTATAT,0.209
